± gives the standard deviation of the averaged measurements. The list shows a part of the results.
System: PfAP2-LT AP2 domain (GST-tagged)
Assay: gcPBM binding intensity (ln(normalized median fluorescence intensity)); higher = stronger DNA binding
Summary of the method: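 Probes on an Agilent 4 × 180k array were primer-extended, double-stranded and 36 bp long, taken from intergenic genomic regions, with negative controls added. GST-tagged P. falciparum DNA-binding domains from E. coli, about 25 μg on average, were applied to the array for 1 h in 1× PBS containing 1% milk, 0.2 mg/ml BSA, 0.5% salmon testes DNA and 0.03% Triton X-100. Binding intensity, obtained after Alexa488 anti-GST antibody detection and a 488 nm scan, is the highest Masliner-normalised natural-log median intensity across replicate spots of either probe orientation.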

Sequence	gcPBM binding intensity (ln)
TGTGTTAATATATGAAGTACACAATACACACTAATT [XGTACX_site5469]	9.11 ± 0.25
AAATAAAATTATAATACATGCATACATACATATATA [TGCATGCA_site69]	8.64 ± 0.43
TATAAATACATACGTACACACAAATATTAAAATATA [CACACA_site5129]	9.06 ± 0.41
TCATATGTTAAATGATGTACATTTAATATAAATAAA [XGTACX_site900]	8.5 ± 0.42
AAAAAAAACATCCTCACACATATATATATATATATA [CACACA_site5166]	9.885 ± 0.021
TAATATCATTTATGGGGTACCTCCTATTCTTATTTA [XGTACX_site1839]	8.8 ± 0.55
CGAACTGCACTTTTTAGTACTTAATAATTATTTTTT [XGTACX_site2446]	8.73 ± 0.51
ATTAATATGAATAAAACACACATATATAATTTGTAA [CACACA_site1929]	8.87 ± 0.41
AAAAAAAAAAAGAAATGTACATGAATATTTTAAATG [XGTACX_site4069]	8.57 ± 0.64
TGCAGTCTGGAGAAGAGTACACAGTATCTGGTAACA [XGTACX_site2037]	8.78 ± 0.47
TATATATTCATATGTTGTACATAAATACAAATAAGA [XGTACX_site5602]	8.69 ± 0.44
AAAGGTAAATGTAAATAAATAAATAATAAATATATA [GTGCAC_negctrl_site681]	8.72 ± 0.53
AACAGAATAATACTAAATGAACGATTTCTCTTTATG [GTGCAC_negctrl_site376]	8.6 ± 0.51
TATACATGTTATGTACATCTAATCACACGTGCAATA [CACACA_negctrl_site1267]	8.96 ± 0.4
TCTTTTTACACCTCTTACATAAAACAAAATAAGGGG [XGTACX_negctrl_site12]	8.85 ± 0.37
TTGTAAATTTACATTTGTACATAAATATATTAATAT [XGTACX_site3969]	8.6 ± 0.49
TGTATGTTTGGGTGCACACATAAATATTATATATAG [CACACA_site3397]	9.01 ± 0.47
ATATATATAAAACACACACACACATGGTTTAAAACT [CACACA_site4219]	9.72 ± 0.18
CATGCTACATCTTATTGTACTTATCTAATGTTAGTA [XGTACX_site1863]	8.93 ± 0.34
AGGCAATATTATATATATATATATATATATATATAT [CACACA_negctrl_site826]	9.82 ± 0.25

Sequence	gcPBM binding intensity (ln)
GTATGATGCATAAGAGTGCATAAGGATATTTCTTCA	8.84 ± 0.5
AATTTAAAAAATAACAGTACATAAAATATATACATA [XGTACX_site7917]	8.61 ± 0.42
AAAAATAAAAGGTGTGCACACAAAAATATATATATA [CACACA_site8507]	9.66 ± 0.45
TATTGTTATTAAAAATGTACATATAAATTTCTTATT [XGTACX_site1409]	8.43 ± 0.49
TGGCATTAAAATTTAGTGCATATATCTTAGCATGGG	8.66 ± 0.35
TGTGTATATTATATGTGTACATATCAATGTTTATAT [XGTACX_site1885]	9.12 ± 0.4
TAATATTAAATAAATAAAATATATAATATATATATA [XGTACX_negctrl_site49]	8.44 ± 0.4
TAATATATAACGTGCACACACACATCTACGTATGAA [CACACA_site5080]	9.52 ± 0.33
AGTTTTATATTTCTGAGTACTTATGAATCTAGCTCG [XGTACX_site4330]	8.72 ± 0.45
TTTTTTTTTTTTTTTACACACATTTTAATAATTTTA [CACACA_site1492]	8.74 ± 0.43
ATTTTTTCTAAAAGTTGTACATTAAAACGTGTTCAC [XGTACX_site4803]	8.57 ± 0.46
TTGTAAAAAATTCATACACACGTCTTATTTTTAAGA [CACACA_site8390]	8.62 ± 0.41
TATTTATTCTCCAACACACACACATATATATATATA [CACACA_site2894]	9.66 ± 0.2
TTATAGGTGCTTCGTAGTACATAAAAATAATATATA [XGTACX_site6979]	8.54 ± 0.43
AAAATGAATTTAAAATGTACTTTTTCTAAAGAGTAA [XGTACX_site2337]	8.21 ± 0.52
AAGACTCTTTGTCCTTGTACATATATTTTTATGTTT [XGTACX_site3711]	8.94 ± 0.45
TTTATATAATATGAATGTACTTATATATTTATAGAC [XGTACX_site3261]	8.49 ± 0.42
TATTTATACACGCACACACACTTATACATTTATATA [CACACA_site7543]	9.64 ± 0.31
TTTCTTTTTTAGAGGTGTACACGTAGGCCTCTTGGA [XGTACX_site4760]	8.44 ± 0.5
CACACTTTTTAAATTAACGCATTTCAAAAAAAATAT [CACACA_negctrl_site84]	8.41 ± 0.46

Sequence	gcPBM binding intensity (ln)
TTAGATATTAATATATGTACATATTAATATATTTAC [XGTACX_site7119]	8.68 ± 0.39
TATAATTTTTACTGGGTGCACTCGATATTTTAAATA	8.59 ± 0.49
TAAATGTAAAACGAAATGCACACTATGGAAAATATA [CACACA_site724]	9.09 ± 0.39
ATTATTTTATATACATGTACATATTATATATAAAAG [XGTACX_site2735]	8.51 ± 0.42
TATAAAATAAAAAATATATATATGTATATATATATA [TGCATGCA_negctrl_site163]	8.9 ± 0.37
TATAAGTGCTCAACGGTGCATTTATAGAAGTTAAAC	8.83 ± 0.41
TCTTCCATTTTTATTACACACATAAATATGAAATCG [CACACA_site3471]	8.82 ± 0.36
ACATTTTTGGTTTTAGTGCAATATGAATTATTTTAT	8.69 ± 0.33
CCTTTAAGCAAAAACACACACACATATATATATATA [CACACA_site348]	9.945 ± 0.035
ATTATTATTTTACGTAGTACATATAATAAATATTTA [XGTACX_site8934]	8.42 ± 0.55
GGAATATTATTTCAATGTACATTTTGAGATTAGAAT [XGTACX_site8187]	8.62 ± 0.38
TATCCATATTTGTTCACACACACACGGATTTATATA [CACACA_site7649]	9.59 ± 0.26
TTATTTCTAATTCGTTGTACAATATATAATATATAT [XGTACX_site5861]	8.64 ± 0.49
TAGGTGTTAAAAAATACACACACAAAAAAAAAAAAA [CACACA_site7927]	9.22 ± 0.61
TTGATAGACACATGCACACATGCAATACTTTATTCA [CACACA_site3000]	9.06 ± 0.39
ATATAAAGTATGTTAGTGCACTTTTTTTTTTTTTTT [GTGCAC_site9419]	8.77 ± 0.44
GTAATACACATATAATGTACTCATAAATATATTTAT [XGTACX_site4041]	8.88 ± 0.33
TCATAGGAGAACTTTTGTACAGATTTTTCTTTTTTT [XGTACX_site2853]	8.52 ± 0.56

From the supplement of paper PMC11417369
